In all, about 110,000 compounds were measured (“z-score”: median about -0.1, highest 2% from about 2 on). The list shows a part of the results. Activity calls are given as the source filed them.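 How the source made its calls: active means z-score in the third read window above 3 or below -3; inactive means the rest.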
Target: Metabotropic glutamate receptor 8 (Rattus norvegicus) (UniProt P70579)
Experiment: rat mGluR8 modulators via GIRK flux, primary screen, cell-based, thallium flux, HTS (AID 488969)
Conditions: HEK293 rat mGluR8, GIRK (G protein-gated inwardly rectifying potassium channel) thallium flux, FluoZin2; at 10 µM; stronger effect = higher value; submaximal glutamate (EC20) added with thallium

Sequence of UniProt P70579 (P70579 whole entry, looked up): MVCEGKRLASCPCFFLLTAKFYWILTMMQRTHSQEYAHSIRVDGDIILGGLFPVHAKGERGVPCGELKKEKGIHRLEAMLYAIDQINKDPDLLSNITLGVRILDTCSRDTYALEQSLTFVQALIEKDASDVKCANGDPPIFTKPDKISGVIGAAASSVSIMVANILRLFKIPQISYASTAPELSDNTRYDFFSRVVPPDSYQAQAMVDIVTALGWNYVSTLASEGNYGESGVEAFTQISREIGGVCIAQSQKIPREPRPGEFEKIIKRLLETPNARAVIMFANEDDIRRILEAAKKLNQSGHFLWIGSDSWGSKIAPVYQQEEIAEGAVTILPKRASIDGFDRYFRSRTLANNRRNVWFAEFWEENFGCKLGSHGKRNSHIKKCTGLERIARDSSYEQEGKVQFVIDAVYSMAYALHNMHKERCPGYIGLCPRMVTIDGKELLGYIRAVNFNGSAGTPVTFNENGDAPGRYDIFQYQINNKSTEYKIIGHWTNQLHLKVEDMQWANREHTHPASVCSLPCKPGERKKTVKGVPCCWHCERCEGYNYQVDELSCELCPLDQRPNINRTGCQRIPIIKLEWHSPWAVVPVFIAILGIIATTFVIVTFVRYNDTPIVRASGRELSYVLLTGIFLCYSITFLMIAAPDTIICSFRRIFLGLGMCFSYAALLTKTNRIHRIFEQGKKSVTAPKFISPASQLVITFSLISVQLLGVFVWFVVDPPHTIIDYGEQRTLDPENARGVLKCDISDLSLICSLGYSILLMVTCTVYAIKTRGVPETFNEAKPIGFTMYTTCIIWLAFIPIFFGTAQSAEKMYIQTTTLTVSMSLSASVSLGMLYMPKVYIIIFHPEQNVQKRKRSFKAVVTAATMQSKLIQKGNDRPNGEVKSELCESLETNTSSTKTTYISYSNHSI

Compared with `COc1ccc(C(=O)/C=C/Nc2ccc(S(=O)(=O)Nc3onc(C)c3C)cc2)cc1`, `Cc1onc(-c2ccccc2Cl)c1C(=O)Nc1ccc(S(=O)(=O)N2CCCC2)cc1` is lower in z-score: -0.218 for the first, -0.528 for the second.

Compared with `O=C(CSC1=Nc2ccccc2C2=NC(CC(=O)NC3CCCCC3)C(=O)N12)NCc1ccco1` (configuration not stated), `O=C(CSc1nnc2ccccn12)NC(=O)NC1CCCCC1` is higher in z-score: -0.187 for the first, -0.1 for the second.

First: CSc1nnc(C)c(=O)n1COC(=O)c1ccc(S(=O)(=O)N2CCCC2)cc1
Second: CCn1c(SCC(=O)Nc2cc(C)on2)nnc1-c1ccc(S(=O)(=O)N2CCN(C)CC2)cc1
The z-score of the first is lower: -0.884 for the first, -0.132 for the second.

Compared with `CCOc1ccc(CCNC(=O)CCn2cccc2)cc1OCC`, `CCOc1ccccc1OCC(=O)NCc1ccco1` is higher in z-score: -0.928 for the first, 0.0775 for the second.

First: COc1cccc2c(=O)n(CC(=O)NC3CCCC3)ccc12
Second: CCOC(=O)COc1ccc(C(=O)NC2CCCCC2)cc1
The z-score of the first is lower: -0.163 for the first, 0.891 for the second.

Going from `Cc1cccc(C(=O)Nc2onc(C)c2C#N)c1` to `CC(=O)c1cc2c(=O)c3ccccc3oc2nc1C`, the z-score falls from 0.177 to 0.0756.

Going from `CCOc1ccc(N2C(=O)CC(/C=C3/N(C)c4ccccc4C3(C)C)C2=O)cc1` (configuration not stated) to `CCOc1ccc(-n2c(SCC(=O)Nc3cc(C)on3)nnc2-c2c[nH]c3ccccc23)cc1`, the z-score rises from -0.165 to -0.0629.

First: CC(C)Cn1c(-c2ccc(Br)o2)n[nH]c1=S
Second: CCC(C)NC(=O)c1cc(-c2ccc(OC)cc2)on1 (configuration not stated)
The z-score of the first is higher: 1.12 for the first, -0.194 for the second.

Going from `CCCCCC(=O)NC(NC(=S)N1CCOCC1)C(Cl)(Cl)Cl` (configuration not stated) to `CCOC(=O)C(C(=O)N1CCOCC1)C1CCCCC1` (configuration not stated), the z-score falls from 0.826 to -0.434.

First: COC(=O)C1=C(C)NC(=O)NC1c1ccccc1 (configuration not stated)
Second: C=CCOc1c(OC)cc(Cl)cc1C1NC(=O)NC(C)=C1C(C)=O (configuration not stated)
The z-score of the first is lower: -0.341 for the first, -0.132 for the second.

First: NC(=O)c1noc(C(=O)N(CC(=O)NC2CCCC2)Cc2ccc3c(c2)OCO3)c1N
Second: COc1cc(OC)c(C2=NOC(C(=O)NCc3ccc4c(c3)OCO4)C2)cc1Cl (configuration not stated)
The z-score of the first is higher: -0.521 for the first, -0.603 for the second.

Going from `Fc1ccc(CSc2nc3ccccc3[nH]2)cc1` to `Nn1c(SCc2nc3ccccc3[nH]2)nnc1-c1ccccc1`, the z-score falls from -0.2 to -0.429.

First: CC(=O)NCCOc1cccc2cccnc12
Second: COc1ccc(C(=O)NCCSc2ccccc2)cc1
The z-score of the first is higher: 0.331 for the first, -0.0064 for the second.

Going from `Cc1ccc(N(C(=O)c2ccccn2)C2(C(=O)NC3CCCC3)CCCCC2)cc1` to `O=C1CCN1C1(C(=O)NC2CCCCC2)CCCC1`, the z-score rises from -0.136 to -0.104.

Going from `CCN(CC)S(=O)(=O)c1ccc(C(=O)NCc2cccs2)cc1` to `O=S(=O)(Nc1ccccc1Cl)c1ccc(F)cc1`, the z-score falls from 0.772 to 0.00935.

First: C=CCNC(=O)CSc1nnc(-c2ccncc2)n1CCc1ccccc1
Second: C=CCn1c(SCC(=O)Nc2ncc(Cc3cc(Cl)ccc3Cl)s2)nnc1-c1ccncc1
The z-score of the first is higher: 0.264 for the first, -0.172 for the second.

Going from `Cc1cc(C)n(C(=O)c2c([N+](=O)[O-])c(C)nn2C)n1` to `COCc1cc(C)nc(OCC(=O)N/N=C/c2ccc(-c3cc([N+](=O)[O-])ccc3C)o2)c1C#N`, the z-score rises from -0.529 to -0.115.

Going from `CCOC(=O)C(C(=O)Nc1cccc(C)c1)C1CCCCC1` (configuration not stated) to `Cc1cccc2cc(COC(=O)C3CCCCC3)c(=O)[nH]c12`, the z-score falls from 0.442 to -0.122.

Going from `O=C(/C=C/c1ccccc1Cl)NCCN1CCOCC1` to `CCOC(=O)C1CCCN(C(=O)c2c(-c3ccccc3Cl)noc2C)C1` (configuration not stated), the z-score rises from 0.193 to 0.278.

First: O=C(CSc1ccc(Cl)cc1)Nc1ncccn1
Second: COc1cccc(-c2nnc(SCC(N)=O)n2-c2ccc(Cl)cc2)c1
The z-score of the first is higher: -0.143 for the first, -0.328 for the second.

Compared with `CCCCNC(=O)c1onc(CSc2cccc(Cl)c2)c1C(=O)O`, `C=CCNC(=O)c1onc(CSc2ccccc2)c1C(=O)O` is higher in z-score: -0.395 for the first, -0.0618 for the second.

First: CCC(c1nnnn1CCc1ccccc1)N(Cc1ccco1)Cc1cc2c(C)ccc(C)c2[nH]c1=O (configuration not stated)
Second: CCCn1c(=O)c2ccccc2n2c(SCC(=O)c3ccc(CC)cc3)nnc12
The z-score of the first is higher: -0.165 for the first, -1.96 for the second.

Going from `COc1c(C(=O)Nc2ccc(Cc3ccncc3)cc2)ccc2ccccc12` to `Cc1ccc(NC(=S)NC(=O)c2ccc(-c3ccccc3)cc2)cc1`, the z-score rises from -0.24 to 0.292.

Going from `Cn1c(C23CC4CC(CC(C4)C2)C3)n[nH]c1=S` to `c1ccc2c(c1)CNC1(CCCCC1)C2`, the z-score rises from 0.216 to 0.24.

Compared with `O=C(CSc1ncc(C(F)(F)F)cc1Cl)N1CCN(S(=O)(=O)c2ccccc2)CC1`, `Cc1cc(C)c(C#N)c(SCC(=O)N2CCN(Cc3ccccc3)CC2)n1` is lower in z-score: 0.188 for the first, -0.392 for the second.

Going from `COc1ccc(-n2cccc2C=O)cc1OC` to `COc1ccc(Nc2nc3ccc(C)cc3cc2C#N)c(OC)c1`, the z-score falls from -0.00678 to -0.143.

First: CCNC(=S)N1CCC(c2nc3cc(C)c(C)cc3[nH]2)CC1
Second: Cc1ccc2nc(Cl)c(CN(C(=O)c3cnccn3)C3CCCCC3)cc2c1
The z-score of the first is higher: 1.23 for the first, -0.772 for the second.

First: COc1cccc(-c2ccc(C#N)c(SCC(=O)NCCc3cccc(Cl)c3)n2)c1
Second: CCCCn1nnc(NC(=O)c2ccc(-c3cccc(Cl)c3)o2)n1
The z-score of the first is higher: -0.032 for the first, -0.581 for the second.

Compared with `COc1ccc(CC(=O)NCc2ccc3c(c2)OCO3)cc1`, `O=C(N/N=C/c1ccc(OC(=O)c2ccc3c(c2)OCO3)cc1)c1cncc(Br)c1` is higher in z-score: -0.347 for the first, -0.22 for the second.

Going from `c1ccc(Oc2cccc(OCCCCSc3ncccn3)c2)cc1` to `COc1ccc(/C(O)=C/c2nc3ccccc3n(-c3ccccc3)c2=O)cc1`, the z-score falls from -0.198 to -0.642.

Compared with `NC(=O)Cn1c(=O)n(C2CCCCC2)c(=O)c2c3c(sc21)CCCCC3`, `O=C(CN1CCCCCCC1)N/N=C/c1ccc(F)c(F)c1` is lower in z-score: -0.267 for the first, -0.563 for the second.

Compared with `Nc1ccc(Br)c2c1C(=O)c1ccccc1C2=O`, `O=C1C(C=NC2CC2)=C(O)c2ccccc21` is higher in z-score: -0.147 for the first, 0.377 for the second.

First: Cc1nn(CC(=O)O)c(=O)c2ccccc12
Second: Cc1ccc(-n2nnc3c(=O)n(CC(=O)N4CCCC4)cnc32)cc1
The z-score of the first is higher: -0.269 for the first, -0.284 for the second.

First: O=C(Nc1ccc(Cl)cc1F)C1CCN(S(=O)(=O)c2cccnc2)CC1
Second: CCn1c(SCc2ccccc2)nnc1C1CCN(S(=O)(=O)c2ccc(OC)cc2)CC1
The z-score of the first is lower: -0.223 for the first, 0.613 for the second.

Going from `COCCCNS(=O)(=O)c1ccc2c(c1)CCN2C(C)=O` to `CCCS(=O)(=O)N1CCN(C(=O)c2cc(OC)cc(OC)c2)CC1`, the z-score rises from -0.32 to 0.273.

First: Cc1occc1C(=O)NNC(=O)C1CCCCC1
Second: O=C(NC(=S)NCC1CCCO1)c1ccccc1 (configuration not stated)
The z-score of the first is lower: 0.00473 for the first, 0.575 for the second.

Compared with `COc1cccc(-c2[nH]nc3c2C(c2ccc(C)o2)C(C#N)=C(N)O3)c1` (configuration not stated), `Cc1ccc2nc(/C(C#N)=C\c3ccc([N+](=O)[O-])o3)[nH]c2c1` is higher in z-score: -0.259 for the first, 0.358 for the second.

Compared with `CCOC(=O)CN1N=C(c2ccc(Cl)s2)CSC1=O`, `O=C(c1ccc(Cl)s1)N1CCN(c2nc3ccccc3s2)CC1` is higher in z-score: -0.0627 for the first, 0.00427 for the second.

Compared with `CCN(CC)c1nc(=S)nc(NC(C)(C)C)[nH]1`, `CCOC(=O)c1c(C)c(C(=O)Nc2ccc(N(C)C)cc2)c(C)n1CC` is lower in z-score: 0.376 for the first, -0.524 for the second.

Going from `FC(F)(F)c1cc(-c2cccs2)n[nH]1` to `CCC(C(=O)Nc1cccc(C(F)(F)F)c1)c1ccccc1` (configuration not stated), the z-score falls from -0.152 to -0.483.

Going from `CC(NC(=O)COc1cc(=O)n(C)c2ccccc12)c1ccc2c(c1)OCCO2` (configuration not stated) to `COc1cc(C2Nc3ccccc3C(=O)N2c2ccc3c(c2)OCCO3)ccc1OCC(C)C` (configuration not stated), the z-score rises from -0.783 to -0.661.

Going from `C=CCn1c(SCc2c(C)noc2C)nc2sc(C)c(C)c2c1=O` to `Cc1sc2c(c1C)CN(C1CC(C)(C)NC(C)(C)C1)CN2C(=O)c1ccco1`, the z-score falls from -0.301 to -0.477.

Going from `CN(Cc1cccc(Cl)c1Cl)c1ccc(S(=O)(=O)N2CCCCC2)cc1[N+](=O)[O-]` to `CC1CCCN(S(=O)(=O)c2ccc(NC(=O)CN3CCN(C)CC3)cc2)C1` (configuration not stated), the z-score falls from 0.0394 to -0.00309.

Going from `O=C(NNc1nc(-c2ccccc2)c2cc(Br)ccc2n1)c1ccc(S(=O)(=O)N2CCOCC2)cc1` to `O=C(NN1C(=O)c2ccccc2NC1c1ccccn1)c1ccc(Br)cc1` (configuration not stated), the z-score falls from -0.398 to -0.669.

Going from `O=C(O)C1C2C=CC3(CN(Cc4ccco4)C(=O)C13)O2` (configuration not stated) to `O=C1C2C(C(=O)N1Cc1cccnc1)C1C=CC2C12CC2` (configuration not stated), the z-score falls from 0.079 to -0.142.

Compared with `CCCc1cc(=O)oc2cc3occ(C)c3cc12`, `Cc1nn(Cc2ccc(C(=O)Nc3ccc(Br)c4cccnc34)o2)c(C)c1Br` is higher in z-score: 0.769 for the first, 1.16 for the second.

First: CCN1CCN(Cc2ccc(NC(=O)Nc3ccccc3)cc2)CC1
Second: CCn1c(SCC(=O)N2CCN(c3ccccc3)CC2)nnc1-c1ccoc1C
The z-score of the first is higher: 0.302 for the first, -0.305 for the second.

First: Cc1ccc(C(=O)N/C(=C\c2ccco2)C(=O)NCCCn2ccnc2)cc1C
Second: CN(C)c1ccc(/C=N/Nc2ccc(-n3ccnc3)nn2)cc1
The z-score of the first is higher: -0.101 for the first, -0.181 for the second.

First: ClCc1csc(-c2ccc(Cl)cc2)n1
Second: Cc1ccc(S(=O)(=O)C2C(=O)NC3(C)CC2c2ccccc2O3)cc1 (configuration not stated)
The z-score of the first is higher: -0.215 for the first, -0.624 for the second.

Compared with `CC(C)NC(=O)NC(=O)COC(=O)c1ccc(F)cc1F`, `CC(C)(C)C(=O)Nc1ccc(C(=O)N/N=C/c2ccccc2OC(=O)c2ccc(Cl)cc2)cc1` is lower in z-score: 0.305 for the first, -0.655 for the second.

First: O=C(Nc1cc(Cl)cc(Cl)c1)c1cnn2cccnc12
Second: O=C(NCc1cccnc1)c1cccc2c1C(=O)N(Cc1cccnc1)C2
The z-score of the first is higher: 0.519 for the first, -0.164 for the second.

Going from `COC(=O)C1C(=O)c2c([nH]c(C(=O)OCCOC(C)C)c2C)CC1C` (configuration not stated) to `CC(=O)OC1COC(N2CCc3cc([N+](=O)[O-])ccc32)C(OC(C)=O)C1OC(C)=O` (configuration not stated), the z-score falls from 0.216 to 0.0841.

First: COc1ccccc1N1CCN(c2cc(=O)n(-c3ccccc3Cl)c(=O)[nH]2)CC1
Second: CC(=O)Nc1ccc(Nc2ccc(N3C(=O)CCCC3=O)cc2[N+](=O)[O-])cc1
The z-score of the first is lower: -0.415 for the first, 0.223 for the second.

First: O=C(O)c1ccccc1Nc1ccc([N+](=O)[O-])cc1
Second: N#C/C(=N\Nc1ccccc1)C(=N)N1CCCCC1
The z-score of the first is lower: -0.445 for the first, -0.0975 for the second.

Going from `O=C(CCCCCCN1C(=O)c2ccccc2C1=O)Nc1nccs1` to `CC1(C)CC(=O)C2=C(C1)N=C1SCCC(=O)N1C2c1ccc(C(F)(F)F)cc1` (configuration not stated), the z-score rises from -0.133 to 0.534.

With `Fc1ccc(/C=N/NC(=S)Nc2ccc(Cl)cc2)cc1F` the z-score was active: 6.19.
For `Cc1cc2[nH]c(=O)c3ccccc3n2n1`, the z-score was active: 4.8.

Source: PubChem BioAssay AID488969 (Vanderbilt High Throughput Screening Facility, 2010)
